According to publication PMC6919601, “Identification of Plasmodium dipeptidyl aminopeptidase allosteric inhibitors by high throughput screening” (PLoS ONE, 2019):
The campaign covered roughly 110,000 compounds. About 230 (0.21%) showed an effect of 50% or more. The list shows a part of the results.

target: DPAP1 (Plasmodium falciparum, UniProt Q8IIJ9); experiment: primary screen, percent inhibition; read by cleavage of a fluorogenic dipeptide substrate; higher = more effect of the substance; design: species or system P. falciparum D10 trophozoite lysates; single well
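Also: 30 min substrate incubation versus DMSO and 10 µM JCP410 controls.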

Chain of DPAP1 (Q8IIJ9 whole entry, looked up): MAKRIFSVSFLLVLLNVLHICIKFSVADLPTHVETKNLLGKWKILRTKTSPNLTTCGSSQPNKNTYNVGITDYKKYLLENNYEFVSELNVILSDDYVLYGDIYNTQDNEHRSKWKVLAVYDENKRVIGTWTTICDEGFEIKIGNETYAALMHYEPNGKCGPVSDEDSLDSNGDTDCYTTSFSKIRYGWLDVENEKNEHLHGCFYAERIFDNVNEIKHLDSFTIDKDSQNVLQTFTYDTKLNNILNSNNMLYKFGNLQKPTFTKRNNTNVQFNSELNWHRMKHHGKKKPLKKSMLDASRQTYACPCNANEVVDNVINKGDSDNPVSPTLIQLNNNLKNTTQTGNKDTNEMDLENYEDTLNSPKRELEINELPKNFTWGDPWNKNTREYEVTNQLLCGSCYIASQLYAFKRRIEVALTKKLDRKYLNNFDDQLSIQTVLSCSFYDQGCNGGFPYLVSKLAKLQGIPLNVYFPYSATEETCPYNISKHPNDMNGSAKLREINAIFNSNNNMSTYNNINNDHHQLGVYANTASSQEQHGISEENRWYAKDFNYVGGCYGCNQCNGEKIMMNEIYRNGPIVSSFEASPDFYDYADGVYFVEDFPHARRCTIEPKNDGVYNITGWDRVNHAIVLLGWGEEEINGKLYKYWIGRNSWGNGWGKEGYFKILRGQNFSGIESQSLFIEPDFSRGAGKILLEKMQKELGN

Row | SMILES | % Inhibition @ 10 uM [%]
1 | COCCCN1C(=O)S/C(=C/c2ccc(O)c(Cl)c2)C1=O | 2.4
2 | Cc1cc(-c2ccccc2)nc2cc(C(=O)NCc3cccs3)nn12 | -5.28
3 | O=C(Nc1nc2ccccc2s1)c1ccc(Cl)cc1 | -1.17
4 | CCN(CC)C(=O)c1c(NC(=O)c2ccccc2)sc2c1CCCC2 | 19.3
5 | Cc1ccc(CNC(=O)C2CCCN(S(=O)(=O)N3CCCCCC3)C2)cc1 (centres unmarked) | 4.36
6 | N#CC(C(N)=O)=C1CCC2(CC1)OCCCCO2 | -0.969
7 | COc1ccc2c(CNC3CCCC(C)C3C)c(C(=O)O)n(Cc3ccc(C)cc3)c2c1 (centres unmarked) | 3.12
8 | CCc1nc2ccccc2c(NC(=O)CN2CCCCC2)c1C | 1.9
9 | O=S(=O)(Nc1c(Cl)cc(Cl)c2cccnc12)c1ccccc1 | -0.216
10 | CC(C(=O)Nc1ccc(Br)cc1)N1C(=O)c2ccccc2C1=O (centres unmarked) | -3.92
11 | COc1cc(CNC(C)(C)CO)cc(Cl)c1OCC(=O)NC(C)(C)C | 3.63
12 | Cc1ccc(NCN2C(=O)C3C4C=CC(C4)C3C2=O)cc1Cl (centres unmarked) | -4.68
13 | CCOc1ccccc1C1CC(=O)NC2=C1C(=O)CCC2 (centres unmarked) | -3.87
14 | O=C(CCCN1C(=O)C(c2ccccc2)Oc2cccnc21)NCc1ccccn1 (centres unmarked) | -0.397
15 | CCOc1cc(C2C(C#N)=C(N)OC3=C2C(=O)CC(C)(C)C3)ccc1OCc1ccccc1F (centres unmarked) | 1.35
16 | O=C(NC1CC1)C1CCC(=O)N1Cc1ccc(F)cc1 (centres unmarked) | 3.24
17 | CC1CCN(C(=O)CSc2ncnc3c2sc2ccccc23)CC1 | 2.9
18 | CCOc1ccc(-c2cc(C(=O)O)c3ccccc3n2)cc1 | -0.641
19 | COc1ccc(Cl)cc1N(CC(=O)Nc1cccc(Br)c1)S(C)(=O)=O | -7.09
20 | O=C1c2ccccc2C(=O)c2c1ncn2-c1ccccc1 | -1.81
21 | COc1ccc(/C=C(\C#N)c2nc3ccccc3[nH]2)cc1 | 2.94
22 | CCOc1cc2sc(N3CCC(C(=O)N(C)Cc4ccccc4)CC3)nc2cc1Br | -3.34
23 | COc1cc(/C=C2\SC(=O)N(c3ccccc3)C2=O)ccc1OCC(=O)O | 0.36
24 | CC(C)CCOc1ccc(CC(=O)O)cc1 | 1.03
25 | O=c1[nH]c(=O)n(Cc2ccco2)c2c1C(C(F)(F)F)(C(F)(F)F)NC(c1ccncc1)=N2 | 0.561

Row | SMILES | % Inhibition @ 10 uM [%]
26 | CCOC(=O)c1cnn(-c2ccc(Cl)c(Cl)c2)c1N | -9.03
27 | CC(NC(=O)C1CCCN1c1nnc(N2CCCC2=O)s1)c1ccc2c(c1)OCCO2 (centres unmarked) | -4.76
28 | COCCn1c(Cc2cccn2C)nnc1SCC(N)=O | -5.58
29 | CC1=C(C(=O)OCc2ccc(C)cc2)C(c2cccc(Cl)c2Cl)CC(=O)N1 (centres unmarked) | 4.23
30 | CCc1nn(CC(=O)NCc2cccnc2)c(=O)c2cccn12 | -1.81
31 | NC(=O)COc1ccc2ccccc2c1Br | -7.32
32 | CCn1cc(C2C(C#N)=C(N)OC3=C2C(=O)CCC3)c(C)n1 (centres unmarked) | -1.84
33 | CS(=O)(=O)C1=NSC2=NC(=O)/C(=C\c3ccc(-c4ccccc4)o3)C(=N)N21 | -1.58
34 | O=C(c1ccc2c(c1)OCO2)N(Cc1ccccc1)Cc1ccccc1 | -3.26
35 | Cc1ccccc1OC(C)C(=O)Nc1nccs1 (centres unmarked) | -9.11
36 | CC(=O)Nc1ccc(S(=O)(=O)CO)cc1 | 1.44
37 | C=CCn1c(SCC(N)=O)nc2c(c1=O)C1(CCCCC1)Cc1ccccc1-2 | 0.751
38 | Cc1ccccc1OCC(=O)Nc1ccc(S(=O)(=O)N2CCC(C)CC2)cc1 | -2.76
39 | CCCCCCc1cc2cc(-c3csc(NC(=O)CCC(=O)N4CCCC4)n3)c(=O)oc2cc1O | 5.27
40 | CSc1nc2ccc3nc(NC(=O)c4ccc(F)cc4)sc3c2s1 | 3.06
41 | CC1(C)CC(=O)C2=C(C1)OC(N)=C(C#N)C21C(=O)N(CCc2ccccc2)c2ccccc21 (centres unmarked) | -4.6
42 | CN(CCNC(=O)CN1C(=O)C(c2ccccc2)Oc2cccnc21)C1CCCCC1 (centres unmarked) | -2.1
43 | O=C(NCc1cccs1)c1cc2nc(-c3cccs3)cc(C(F)(F)Cl)n2n1 | -9.26
44 | COc1ccc(CC/N=C/C2=C(O)CC(c3ccccc3)CC2=O)cc1OC (centres unmarked) | -2.15
45 | CCOC(=O)c1c(NC(=O)COCc2cc(-c3cccs3)on2)sc(C)c1C | -6.13
46 | CCN1CCN(Cc2sccc2C)CC1 | -2.7
47 | O=C(NC1CCCC1)c1ccccc1Br | 2.46
48 | OCCCc1nc2n(n1)C(c1cccs1)C=C(c1ccc(Br)cc1)N2 (centres unmarked) | 0.913
49 | Cc1ccc(NC(=O)CCC(=O)Nc2ccc(C)c(Cl)c2)cc1Cl | -3.18
50 | COc1ccc(/C=C2/C(=O)N(c3ccccc3)C(=S)N(c3ccccc3OC)C2=O)cc1OC | 1.41
